Results from PubChem BioAssay AID1347071 (National Center for Advancing Translational Sciences (NCATS), 2019).
Out of some 410,000 compounds screened, about 260 (0.063%) were called active. The inconclusive results got no clear call from the source; some entries with a clear call stand among them for comparison. Calls come from the whole dose curve; as a rule, active = well fitted activation curve with a large enough effect; inconclusive = small, poorly fitted or top-dose-only effect; inactive = no such curve, though single readings can be large or run the other way. No potency is given beside an inconclusive call; the fits are too rough.

experiment: qHTS for compounds that reverse cellular toxicity of Amyloid beta (A-beta) peptide in yeast: Primary Screen; conditions: yeast expressing A-beta42, growth rescue, OD600, 48 h; growth rescue: at 46.1 µM (top of the series), 0% DMSO, 100% iron-clioquinol control; note: nearly all actives have a fitted effect of over 55% in size
Outline: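 Yeast growth medium received pinned compounds, then yeast cells expressing toxic A-beta were added; plates incubated at 30 C for 48 hr. Growth read as absorbance at 600 nm, normalized to DMSO and equimolar FeCl3 plus clioquinol controls.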
Potency is the fitted concentration of half-maximal effect; tags give direction and shape of the fitted curve.

Compound | Potency
CCCCc1ccc(NC(=S)NCCc2ccc(F)cc2)cc1 | inconclusive [activator, single point]
N/C(=N\OC(=O)COc1ccc(Br)cc1Cl)c1ccccn1 | inconclusive [activator, single point]
O=S(=O)(c1ccc(Cl)cc1)N1CCN(Cc2ccc(O)c3ncccc23)CC1 | inconclusive [activator, single point]
Fc1cccc(Cc2c(-c3ccco3)nc3c(Cl)cc(C(F)(F)F)cn23)c1 | inactive
CCc1ccccc1NC(=S)NCCSc1ccc(Cl)cc1 | inactive
CCN(CCCNC(=O)c1ccc(Sc2ccc(Cl)cc2)c(NC(C)=O)c1)c1ccccc1 | inactive
CCOC(=O)C1=C(c2ccccc2)NC(=S)NC1c1ccc(Cl)cc1 (configuration not stated) | inconclusive [activator, single point]
Cc1ccc(Cn2c(C(CO)Nc3nc(-c4ccc(F)cc4)cs3)nc3ccccc32)cc1 (configuration not stated) | inconclusive [activator, single point]
C=Cc1ccc(Cn2ccn(-c3ccc(F)c(F)c3)c(=O)c2=O)cc1 | inactive
C/C(=N/NC(=O)CN1CCN(Cc2ccccc2Cl)CC1)c1ccncc1 | inconclusive [activator, partial curve, poor fit]
O=C(Nc1cccc(C(F)(F)F)c1)c1cccc(C(=O)Nc2cccc(C(F)(F)F)c2)c1 | inactive
O=C(N1CCN(Cc2ccccc2)CC1)C(Cl)(Cl)Cl | inconclusive [activator, single point]
COCCNc1nc2cc(-c3ccccc3OC)sc2c(=O)n1C | inactive
O=C(NCc1ccc2c(c1)OCO2)NC12CC3CC(CC(C3)C1)C2 | inconclusive [activator, partial curve, poor fit]
O=C(NCc1ccccc1)c1ccc2nccnc2c1 | inconclusive [activator, single point]
COc1cccc2c(=O)c3c(cnn3C)n(C)c12 | inconclusive [activator, partial curve, poor fit]
Cc1ccc(C)c(OCCN2C(=O)NC3(CCc4ccccc4C3)C2=O)c1 (configuration not stated) | inconclusive [activator, partial curve, poor fit]
O=C(NCCc1ccc(F)cc1)c1cc(=O)c2ccccc2o1 | inactive
CCCCOCCCn1cnc2c([nH]c3cc(OC)ccc32)c1=O | inconclusive [activator, full curve, poor fit]
CCc1ccccc1N1C(=O)N(CC(=O)c2ccc(OC)cc2)c2ccccc2S1(=O)=O | inconclusive [activator, partial curve, poor fit]
COc1ccc(CN2CC(=O)N3[C@H]4c5cc(C)ccc5OC[C@@H]4[C@H](c4ccccc4)[C@]3(C)C2=O)cc1 | inconclusive [activator, single point]
Cc1cc(NS(=O)(=O)c2ccc(C(C)C)cc2)no1 | inconclusive [activator, partial curve, poor fit]
COc1ccc(CCC(=O)NCCc2csc(-c3cccc(C)c3)n2)cc1 | inactive
CC(C)c1ccc(NC(=S)NCc2ccc3c(c2)OCO3)cc1 | inconclusive [activator, partial curve, poor fit]
ClCCn1cnc2c(SCc3ccccc3Cl)ncnc21 | inconclusive [activator, single point]
CC1=C/C(=N\NC(=S)NCc2ccccc2)CC1 | inconclusive [activator, full curve, poor fit]

Compound | Potency
CC1CCc2c(C(=O)Oc3cccc(-n4cnnn4)c3)csc2C1 (configuration not stated) | inconclusive [activator, partial curve, poor fit]
COC(=O)c1c(NC(=S)NN2CCOCC2)sc2c1CCCC2 | inconclusive [activator, partial curve, poor fit]
CCCc1[nH][nH]c(=O)c1C(c1ccccc1)C(C#N)C#N (configuration not stated) | inconclusive [activator, partial curve, poor fit]
CSc1c(-c2ccccc2)nc2ccccc2c1C(=O)O | inconclusive [activator, partial curve, poor fit]
NC(=O)/C(=C/c1cccnc1)NC(=O)c1ccccc1 | inconclusive [activator, single point]
O=C(O)c1cc(-c2ccc(/C=N/Nc3ccc([N+](=O)[O-])cn3)o2)ccc1Cl | inconclusive [activator, full curve]
Cc1c(Cl)cccc1NC(=S)N1CCc2ccccc2C1 | inconclusive [activator, partial curve, poor fit]
C/C(=N\NC(=O)c1cc(Br)ccc1O)c1ccccn1 | inconclusive [activator, partial curve, poor fit]
CC(=O)Nc1cc(C(F)(F)F)ccc1Oc1cccc(Br)c1 | inactive
S=C(NCc1cccs1)Nc1ccc(Br)cc1Cl | inconclusive [activator, single point]
O=C(NCc1cccc(Cl)c1)c1cnc(N2CCOCC2)c2ccccc12 | inactive
CN(CC(=O)Nc1cccc(F)c1)C(=O)c1cc2c(s1)CCCCC2 | inconclusive [activator, single point]
O=[N+]([O-])c1ccc(NCc2ccc(Cl)cc2)nc1 | inconclusive [activator, single point]
COc1ccc(C(O)c2nc(-c3ccccc3C)cs2)cc1 (configuration not stated) | inconclusive [activator, partial curve, poor fit]
COc1ccc(OC)c(NC(=S)NCc2ccccc2OC)c1 | inconclusive [activator, single point]
Cc1onc(-c2ccccc2Cl)c1C(=O)OCc1nnc(-c2ccccc2)o1 | inconclusive [activator, full curve, poor fit]
Cc1cccc(NC(=S)N2CCC(c3nc4ccccc4o3)CC2)c1 | active: 15.8 µM
Cc1cccc(C(=O)NC(=S)NNC(=O)Cc2ccccc2)c1 | inactive
COC(=O)c1ccc(Cn2nc(C)c(Br)c2C)cc1 | inconclusive [activator, single point]
O=C(NNS(=O)(=O)c1ccc(F)cc1F)C1Cc2c(ccc3ccccc23)O1 (configuration not stated) | inconclusive [activator, partial curve]
N#Cc1nc(-c2ccccc2F)oc1NC1CCCCC1 | inconclusive [activator, partial curve]
Cc1cc(C)cc(-n2ccnc2SCC(=O)Nc2ccccc2F)c1 | inactive
C=CCc1ccccc1OCCSc1nc(-c2ccccc2F)nc2cc(=O)[nH]n12 | inactive
Cc1ccc2cc(NC(=O)Cc3ccccc3)ccc2n1 | inconclusive [activator, single point]
C=CCOc1c(Br)cc(CNc2ccc(NC(=O)CCC)cc2)cc1OCC | inconclusive [activator, partial curve, poor fit]
CC(C)C(=O)Nc1cccc(C(=O)OCC(=O)c2ccc(Cl)cc2Cl)c1 | inconclusive [activator, full curve, poor fit]

Compound | Potency
CCC(C)C(=O)Nc1nc2ccc(OC)cc2s1 (configuration not stated) | inconclusive [activator, single point]
N#C/C(=C\c1cccc(NC(=O)c2ccccc2Cl)c1)C(=O)NCCc1ccccc1 | inconclusive [activator, full curve, poor fit]
Cc1sc2ncnc(SCC(=O)c3ccc4c(c3)OCCO4)c2c1-c1ccccc1 | inconclusive [activator, single point]
O=C(CSc1nc(=O)n(CCN2CCOCC2)c2c1CCC2)Nc1ccc(Cl)c(Cl)c1 | inactive
Cc1ccc(S(=O)(=O)N2CCN(C(=O)COC(=O)CCOc3cc(C)ccc3C)CC2)c(C)c1 | inconclusive [activator, single point]
Cc1cc(Nc2ccc(F)cc2F)nc(-n2nc(C)cc2C)n1 | inconclusive [activator, full curve, poor fit]
CN(CC(=O)Nc1ccc(F)cc1)C(=O)c1cccc(S(=O)(=O)N2CCN(c3ccccc3)CC2)c1 | inactive
CN1CCN(C(=O)c2cc3ccccc3cc2O)CC1 | inactive
CC(=O)NC(c1cccs1)c1cc([N+](=O)[O-])c2cccnc2c1O (configuration not stated) | inconclusive [activator, single point]
O=C(NCc1ccccc1F)C(=O)NCC(c1ccc2c(c1)OCO2)N1CCOCC1 (configuration not stated) | inactive
O=C(NCc1nnc(SCC(=O)N2CCOCC2)o1)c1ccccc1 | inactive
COc1ccc(N(CC(=O)Nc2ccc(C)cn2)S(=O)(=O)c2c(C)noc2C)cc1 | inconclusive [activator, partial curve, poor fit]
N#C/C(=C\c1c(N2CCCCC2)nc2ccccn2c1=O)C(=O)NC1CCS(=O)(=O)C1 (configuration not stated) | inactive
COc1cc(C(=O)NNC(=S)NC(=O)c2ccc(Cl)cc2)cc(OC)c1OC | inconclusive [activator, full curve, poor fit]
CC1c2ccccc2N(S(=O)(=O)c2ccccc2)C1C (configuration not stated) | inconclusive [activator, full curve, poor fit]
Cc1cc(C)n(-c2nnc3c4ccccc4n(C)c3n2)n1 | inconclusive [activator, single point]
Cc1cc(C)n(-c2nnc(C)c(=O)[nH]2)n1 | inconclusive [activator, partial curve]
O=S(=O)(NCCc1csc(-c2ccc(C(F)(F)F)cc2)n1)c1ccc2c(c1)OCCO2 | inconclusive [activator, partial curve, poor fit]
Cc1cc2n(n1)C(c1ccco1)Nc1ccccc1-2 (configuration not stated) | inactive
CC1=NN(C(N)=S)C(=O)C1N=Nc1cccc(Cl)c1 (configuration not stated) | inconclusive [activator, full curve, poor fit]
Cc1ccc(-n2ncc(C(=O)NCc3ccc4c(c3)OCO4)c2C2CCN(C(=O)OC(C)(C)C)CC2)c(C)c1 | inconclusive [activator, partial curve]
CCOC(=O)c1[nH]c(C)c(C(=O)N2CCN(c3cccc(Cl)c3)CC2)c1C | inconclusive [activator, partial curve, poor fit]
Cc1ccc2c(=O)cc(C(=O)N(Cc3ccc(C(C)(C)C)cc3)C3CCS(=O)(=O)C3)oc2c1 (configuration not stated) | inactive
CN1CCN(C(=O)c2cnn(-c3ccc(F)cc3F)c2C2CCN(C(=O)OC(C)(C)C)CC2)CC1 | inactive
C=C(C)CNC(=S)N/N=C/c1ccc(N2CCOCC2)cc1 | inconclusive [activator, single point]
